Consider 58 molecules from PubChem BioAssay AID463173 (ICCB-Longwood Screening Facility, Harvard Medical School, 2010).

Structures are written as SMILES. In all, about 52,000 compounds went through this assay and about 4,300 (8.3%) were called active. Rule as the data show it: active = survival mostly below about 52% (no sharp cut-off); inactive = mostly above about 56%. This is one part of the list.

This test has as its system DeltatarO mutant. As to the kind of experiment: S. aureus survival, RN4220 and DeltatarO strains – OD600, teichoic acid synthesis inhibitors, primary screen (AID 463173). As to conditions: S. aureus RN4220 wild type/DeltatarO growth, OD600, 18 h, stronger effect = lower value, screened at 18.75 µg/mL (by protocol).
For the molecule `COC(=O)c1cc2c(cc1NC(=O)c1cnn(-c3ccccc3)c1-n1cccc1)OCO2`, the survival was inactive: 83%.

Turning to `CSc1nc(Nc2ccc(C)cc2C)cc(-c2ccccc2)n1`, the survival was inactive: 51%.

As for `CCOC(=O)CNC(=O)CSc1cn(CC(=O)N2CCCCCC2)c2ccccc12`, the survival was inactive: 92%. As for `CN(Cc1ccccc1)C(=O)C1CCN(S(=O)(=O)c2ccc3c(c2)oc(=O)n3C)CC1`, the figure is inactive: 94%; as for `Cc1cccc(C(=O)Nc2nnc(S(=O)(=O)N(C)Cc3ccc(Cl)cc3)s2)c1`, inactive: 95%; as for `CCCCCNC(=O)c1ccc2c(c1)ncn2-c1cccc(C)c1`, active: 0%. Consider `O=C1COc2ccc(-c3cc(-c4ccc(Cl)cc4)c4c(n3)-c3ccccc3OC4)cc2N1`, for which the survival is inactive: 136%. Turning to `CCOc1ccc(C(=O)NCc2nnnn2-c2ccc(C)c(C)c2)cc1OCC`, the survival was inactive: 69%.

On to `Cc1cc(C)c2[nH]c(=O)c(CN(CCCO)C3(c4nnnn4C4CCCC4)CCCC3)cc2c1`, for which the survival was inactive: 84%. As for `Cc1nc2cc(C(=O)NCCC3=CCCCC3)ccc2n1-c1ccc(Br)cc1`, the figure is inactive: 60%; as for `Cc1ccc(-n2c(=O)c3ccc(C(=O)NCc4ccccc4Cl)cc3n(CC(=O)Nc3cccc(Cl)c3)c2=O)cc1`, inactive: 126%; as for `CCc1nn(CC(=O)NCC(C)c2ccccc2)c(=O)c2cc3occc3n12` (stereo not drawn), inactive: 120%. Under `COC(=O)c1ccc(OCC2c3cc(OC)c(OC)cc3CCN2C(=O)c2ccccc2C)cc1` (stereo not drawn) stands inactive: 93%.

On to `Cc1ccc(-c2nnc(Nc3ccc(Br)cc3)c3ccccc23)cc1S(=O)(=O)NCC1CCCO1` (stereo not drawn), for which the survival was inactive: 92%. Regarding `Cc1nc(N2CCCC2)c2c(C(=O)N3CCN(c4ccc(F)cc4)CC3)c(C)oc2n1`, the survival is inactive: 85%.

On to `CCOC(=O)c1cc2c(ccn2C)n1CC(=O)N1CCCC(C)C1` (stereo not drawn), for which the survival was inactive: 95%. Under `O=C(OC1CSc2nc3ccccc3n2C1)c1ccco1` (stereo not drawn) stands inactive: 80%; under `CCc1cccc(CC)c1NC(=O)c1c(C)oc2ccc(O)c(CN3CCN(C)CC3)c12`, inactive: 91%. Regarding `Cc1cccc(N2CCN(C(=O)Cn3ncc4c3-c3cc(C)ccc3OC4)CC2C)c1` (stereo not drawn), the survival is active: 47%.

Take `Cc1cccc(Cn2c(=O)n(CC3CCC(C(=O)NC(C)C)CC3)c(=O)c3sccc32)c1` (stereo not drawn): the survival is inactive: 91%. Under `CSc1ccc(CCNC(=O)C2=C(C)C(=O)OC23CCCCC3)cc1` stands inactive: 85%.

For `COc1ccc(NC(=O)CN2C(=O)C(C)(C)c3ccccc32)cc1Cl`, the survival was inactive: 83%. Under `COc1cccc(C2CC(=O)Nc3cc(OC)c(OC)c(OC)c32)c1OC(C)C` (stereo not drawn) stands inactive: 93%. Under `COc1ccccc1CN1CCC(CNS(=O)(=O)c2cc(-c3onc(C)c3C)ccc2OC)CC1` stands inactive: 91%. Under `Cc1nn(-c2ccccc2)c(OC(=O)c2cccc(Br)c2)c1S(=O)(=O)c1ccccc1` stands inactive: 74%; under `N#Cc1nc(-c2ccc(COc3ccccc3)o2)oc1NCc1cccnc1`, active: 44%; under `CC(C)NC(=O)C1CCC(Cn2c(=O)c3sccc3n(CC(=O)N3CCCC3)c2=O)CC1` (stereo not drawn), inactive: 67%. Consider `COc1ccc(NC(=O)c2ccc3c(=O)n4nc(Nc5ccccc5C)sc4nc3c2)cc1Cl`, for which the survival was inactive: 99%. On to `Cc1ccccc1Nc1cc(C(=O)NC2CCCC2)c2ccccc2n1`, for which the survival is inactive: 85%. Under `CCCOc1ccc(NC(=O)CC2C(=O)N(c3ccccc3)C(=O)N2Cc2ccc(F)cc2)cc1` (stereo not drawn) stands active: 17%. Under `Cc1cccc(Cn2cc(/C=C(/C#N)C(=O)Nc3cccc(Cl)c3)c3ccccc32)c1` stands inactive: 79%; under `CCN(C(=O)c1cc2c(=O)oc3ccccc3c2s1)c1ccc(C)c(C)c1`, active: 15%. As for `Cc1ccc(Cn2c(C(=O)O)c(CNC3CCCCC3)c3ccc(C)cc32)cc1`, the figure is inactive: 86%; as for `Cc1cc(C)cc(NC(=O)c2cc(C)nc3c2c(C)nn3-c2ccccc2)c1`, active: -5%. For `O=C(CSc1nnc(Cc2ccccc2)n1Cc1ccco1)NC1CCCC1`, the survival was active: 44%. With `COc1ccc(NC(=O)Cn2c(=O)n(CCC(C)C)c(=O)c3cccnc32)cc1Cl`, the survival is inactive: 70%. As for `COc1cccc(-c2nc(SCC(=O)NCC3CCCO3)c(-c3ccc(C)cc3)[nH]2)c1` (stereo not drawn), the figure is inactive: 103%. Under `CCOc1ccc(C2CC(=O)NC(NC(=O)c3ccc(C)cc3)=N2)cc1` (stereo not drawn) stands inactive: 89%; under `CCOc1ccc(NC(=O)c2cc3c(C)nn(-c4ccccc4)c3s2)cc1`, inactive: 75%. Under `Cc1ccc(OCC(=O)N(Cc2ccc(Cl)cc2)Cc2ccco2)cc1C` stands inactive: 58%; under `CCN(CC)c1nc2c(S(=O)(=O)c3ccccc3)nnn2c2ccc(Cl)cc12`, inactive: 60%. Consider `CCOc1ccccc1CNC(=O)c1nc(-c2ccc(Cl)cc2)n2c1CCCCC2`, for which the survival was inactive: 67%. Under `CCOc1ccc(CCNC(=O)c2c(C)oc3ncn(CC(C)C)c(=O)c23)cc1` stands inactive: 72%; under `Cc1cccc(-c2nc(S(=O)(=O)c3ccc(Cl)cc3)c(N3CCCCCC3)o2)c1`, active: 46%. Under `Clc1ccccc1CNc1ncnc2c1nc1n2CCCC1` stands inactive: 97%. On to `CSc1nc2ccc(S(=O)(=O)N3CCCCC3)cc2s1`, for which the survival is inactive: 98%.

Turning to `CC1CCN(C(=O)Cn2c(SCC(=O)NC(C)(C)C)nc3ccccc32)CC1`, the survival was inactive: 92%. Under `CCc1ccc(NC(=O)Cn2nnnc2N)cc1` stands inactive: 87%; under `CCC(=O)C1C(=O)CC(C)(C)CC1=O`, inactive: 103%. Under `Cc1ccc(C(=O)NCC(c2ccc3c(c2)OCO3)N2CCN(c3ccc(F)cc3)CC2)cc1` (stereo not drawn) stands inactive: 78%; under `CC(C)=CCc1c(O)cc(O)c2c1OC(c1ccccc1)CC2=O` (stereo not drawn), active: 1%.

In the case of `CCOc1ccccc1NC(=O)Cn1c(=O)n(Cc2nc(C)no2)c(=O)c2ccccc21`, the survival is inactive: 81%. As for `O=C(COC(=O)c1cccs1)NCc1cccs1`, the figure is inactive: 81%; as for `Cc1ccccc1C(=O)Nc1ccccc1OCc1cc(=O)n2ccccc2n1`, inactive: 80%. As for `Cc1cc(C)cc(NC(=O)C2CCCN(c3cnccn3)C2)c1` (stereo not drawn), the figure is inactive: 83%; as for `Cc1ccc(Cl)cc1NC(=O)c1cc2c(=O)n3cccc(C)c3nc2n1C`, inactive: 50%; as for `Cc1ccc(S(=O)(=O)c2cnc(SCC(=O)Nc3ccccc3C(F)(F)F)[nH]c2=O)cc1C`, inactive: 68%. Under `CCOc1cc(CNC(=O)c2ccc3c(c2)nc2n3CCCCC2)ccc1OC` stands inactive: 86%.
